Assay results taken from the supplement of paper PMC10369915.
The other results are listed elsewhere or left out. Rule as the data show it: active = 3.2 or more and inactive = the rest. The signal is at background level for most entries.

Experiments:
Experiment in all cases: enrichment score (SH2-bound / input frequency) (ratio); bacterial display of known human phosphotyrosine sites (pTyr-Var adds point mutants) read by sequencing; higher = stronger binding; tyrosines were phosphorylated by kinases first
Conditions in all cases: peptide library: pTyr-Var
[1] = target: SHP2 C-SH2 domain E139D
[2] = target: SHP2 C-SH2 domain wild-type
[3] = target: SHP2 N-SH2 domain L43F
[4] = target: SHP2 N-SH2 domain T42A
[5] = target: SHP2 N-SH2 domain T52S
[6] = target: SHP2 N-SH2 domain wild-type

Measured: enrichment score
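Also: displayed peptides selected on beads carrying the immobilized SH2 domain, with library peptides lacking any tyrosine serving as negative controls.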

RHPEVYHHLGV [NVL_Y290]
inactive: [1] 2.84 | [4] 2.45 | [5] 3.04
active: [2] 3.29 | [3] 3.25 | [6] 3.28

EREFKYGAHNH [OAT_Y50_Y55H_YF]
inactive: [1] 1.52 | [2] 1.07 | [3] 0.855 | [4] 1.14 | [5] 1.43 | [6] 1.11

SPPEVYAIMRG [NTRK1_Y757_C752S]
inactive: [1] 0.47 | [2] 0.589 | [3] 0.406 | [4] 0.298 | [5] 0.394 | [6] 0.558

MSRDVYSTDFF [NTRK2_Y702_YF]
inactive: [1] 0.804 | [2] 0.616 | [3] 0.805 | [4] 0.719 | [5] 0.764 | [6] 0.948

ANSSFYSTRSA [NUMA1_Y1836]
inactive: [1] 0.677 | [2] 0.569 | [3] 0.613 | [4] 0.525 | [5] 0.718 | [6] 0.536

TNRSVYFKPSL [NUP153_Y382]
inactive: [1] 0.93 | [2] 1.59 | [3] 0.967 | [4] 2.91 | [5] 1.16 | [6] 0.767

PESILYRKFTT [NTRK1_Y701]
inactive: [1] 0.392 | [2] 0.358 | [3] 0.428 | [4] 0.5 | [5] 0.549 | [6] 0.247

EREYKYDAHNY [OAT_Y50_G51D]
inactive: [1] 0.658 | [2] 0.568 | [3] 0.557 | [4] 0.654 | [5] 0.603 | [6] 0.943

YSIDYYRVGGH [NTRK2_Y707_T704I]
inactive: [1] 1.08 | [2] 1.02 | [3] 0.978 | [4] 0.793 | [5] 0.944 | [6] 0.868

ELELLYLDRNS [NYX_Y284]
inactive: [1] 0.901 | [2] 0.555 | [3] 0.795 | [4] 0.692 | [5] 0.905 | [6] 0.881

YDAHNYHPLPV [OAT_Y55_G51D]
inactive: [1] 0.834 | [2] 0.598 | [3] 0.65 | [4] 0.502 | [5] 0.678 | [6] 0.833

EREYKYGAHNH [OAT_Y50_Y55H]
inactive: [1] 1.62 | [2] 1.32 | [3] 1.59 | [4] 1.21 | [5] 1.87 | [6] 1.23

DDPRRYQKFGF [OAS1_Y362_YF]
inactive: [1] 0.596 | [2] 0.575 | [3] 0.534 | [4] 0.493 | [5] 0.488 | [6] 0.818

VYSIDYYRVGG [NTRK2_Y706_T704I]
inactive: [1] 1.61 | [2] 1.92 | [3] 1.8 | [4] 1.38 | [5] 1.56 | [6] 1.4

TNRSFYFKPSL [NUP153_Y382_V381F]
inactive: [1] 0.946 | [2] 0.779 | [3] 0.692 | [4] 1.79 | [5] 0.785 | [6] 0.769

VFSTDYFRVGG [NTRK2_Y706_YF]
inactive: [1] 1.25 | [2] 1.47 | [3] 1.08 | [4] 1.01 | [5] 1.13 | [6] 1.28

MSRDVYSTDCF [NTRK2_Y702_Y706C_YF]
inactive: [1] 0.767 | [2] 0.797 | [3] 0.681 | [4] 0.731 | [5] 0.638 | [6] 0.798

YGAHNYHPLPV [OAT_Y55]
inactive: [1] 1.06 | [2] 1.06 | [3] 1.03 | [4] 0.856 | [5] 0.997 | [6] 1.04

RHPEVYHHLGI [NVL_Y290_V295I]
inactive: [1] 3.04 | [2] 2.1 | [3] 2.91 | [4] 2.22 | [5] 2.92 | [6] 2.9

QAPPIYLDVLG [NTRK1_Y791_V790I]
inactive: [1] 0.813 | [2] 0.894 | [3] 1.01 | [4] 1.07 | [5] 0.882 | [6] 0.894

FSTDFYRVGGH [NTRK2_Y707_YF]
inactive: [1] 0.965 | [2] 0.703 | [3] 0.773 | [4] 1.04 | [5] 0.888 | [6] 0.832

VFSIDYFRVGG [NTRK2_Y706_T704I_YF]
inactive: [1] 2.7 | [2] 2.91 | [3] 2.11 | [4] 2.22 | [5] 2.68 | [6] 2.15

LDVDVYGPSVP [NUBPL_Y109]
inactive: [1] 1.11 | [2] 0.694 | [3] 1.12 | [4] 0.679 | [5] 0.665 | [6] 0.944

KGKLIYLLRDS [NXPE1_Y350_G353R]
active: [1] 4.53 | [2] 3.5 | [3] 4.01 | [4] 3.24 | [5] 3.83 | [6] 3.87

ALKWGYTVKGI [OAT_Y158_R154L]
inactive: [1] 1.5 | [2] 1.38 | [3] 1.65 | [4] 1.59 | [5] 1.29 | [6] 1.75

DDPRTYQKYGY [OAS1_Y362_R361T]
inactive: [1] 0.53 | [2] 0.568 | [3] 0.599 | [4] 0.488 | [5] 0.506 | [6] 0.649

ISRDVYSTDFF [NTRK2_Y702_M697I_YF]
inactive: [1] 0.706 | [2] 0.762 | [3] 0.869 | [4] 0.634 | [5] 0.759 | [6] 0.945

PESIPYRKFTT [NTRK1_Y701_L700P]
inactive: [1] 0.659 | [2] 0.654 | [3] 0.408 | [4] 0.915 | [5] 0.382 | [6] 0.881

YKWAVYCIIGR [NUP93_Y391_R388W]
inactive: [1] 1.9 | [2] 1.44 | [3] 1.87 | [4] 1.47 | [5] 1.96 | [6] 1.64

DFLSSYSAVNQ [OAT_Y85]
inactive: [1] 1.2 | [2] 1.68 | [3] 0.959 | [4] 0.694 | [5] 0.982 | [6] 0.901

ANSSFHSTRSA [NUMA1_Y1836_Y1836H]
inactive: [1] 0.431 | [2] 0.366 | [3] 0.373 | [4] 0.318 | [5] 0.295 | [6] 0.461

FDAHNYHPLPV [OAT_Y55_G51D_YF]
inactive: [1] 0.985 | [2] 0.829 | [3] 0.97 | [4] 0.772 | [5] 0.908 | [6] 0.837

PLLLSYFLIKW [NUP160_Y773_YF]
inactive: [1] 2.59 | [2] 2.27 | [3] 3.07 | [4] 2.32 | [5] 2.62 | [6] 2.95

FKWAVYCIIGR [NUP93_Y391_R388W_YF]
inactive: [1] 1.47 | [2] 1.39 | [3] 1.22 | [4] 1.39 | [5] 1.26 | [6] 1.28

CPPEVYAIMRG [NTRK1_Y757]
inactive: [1] 0.458 | [2] 1.25 | [3] 0.514 | [4] 0.555 | [5] 0.431 | [6] 0.718

MSRFIYSTDFF [NTRK1_Y676_D674Y_YF]
inactive: [1] 1.91 | [2] 1.78 | [3] 1.88 | [4] 1.78 | [5] 1.82 | [6] 1.71

VYSTDCYRVGG [NTRK2_Y706_Y706C]
inactive: [1] 0.792 | [2] 0.991 | [3] 0.749 | [4] 0.737 | [5] 0.672 | [6] 1.03
